# Article PMC4336329 (PLoS ONE, 2015)
# In all, about 310,000 compounds went through this assay and about 14,000 (4.5%) showed an effect of 50% or more. Effects have a minus sign here. The list shows a part of the results.
# Biological target: human ether-à-go-go-related gene (hERG) potassium channel (human, UniProt Q12809)
# Test: primary screen, population patch clamp on CHO cells stably expressing hERG
# 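Also: peak tail current of the secondary pulse compared with the same well before compound.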
# Chain of human ether-à-go-go-related gene (hERG) potassium channel (Q12809 whole entry, looked up): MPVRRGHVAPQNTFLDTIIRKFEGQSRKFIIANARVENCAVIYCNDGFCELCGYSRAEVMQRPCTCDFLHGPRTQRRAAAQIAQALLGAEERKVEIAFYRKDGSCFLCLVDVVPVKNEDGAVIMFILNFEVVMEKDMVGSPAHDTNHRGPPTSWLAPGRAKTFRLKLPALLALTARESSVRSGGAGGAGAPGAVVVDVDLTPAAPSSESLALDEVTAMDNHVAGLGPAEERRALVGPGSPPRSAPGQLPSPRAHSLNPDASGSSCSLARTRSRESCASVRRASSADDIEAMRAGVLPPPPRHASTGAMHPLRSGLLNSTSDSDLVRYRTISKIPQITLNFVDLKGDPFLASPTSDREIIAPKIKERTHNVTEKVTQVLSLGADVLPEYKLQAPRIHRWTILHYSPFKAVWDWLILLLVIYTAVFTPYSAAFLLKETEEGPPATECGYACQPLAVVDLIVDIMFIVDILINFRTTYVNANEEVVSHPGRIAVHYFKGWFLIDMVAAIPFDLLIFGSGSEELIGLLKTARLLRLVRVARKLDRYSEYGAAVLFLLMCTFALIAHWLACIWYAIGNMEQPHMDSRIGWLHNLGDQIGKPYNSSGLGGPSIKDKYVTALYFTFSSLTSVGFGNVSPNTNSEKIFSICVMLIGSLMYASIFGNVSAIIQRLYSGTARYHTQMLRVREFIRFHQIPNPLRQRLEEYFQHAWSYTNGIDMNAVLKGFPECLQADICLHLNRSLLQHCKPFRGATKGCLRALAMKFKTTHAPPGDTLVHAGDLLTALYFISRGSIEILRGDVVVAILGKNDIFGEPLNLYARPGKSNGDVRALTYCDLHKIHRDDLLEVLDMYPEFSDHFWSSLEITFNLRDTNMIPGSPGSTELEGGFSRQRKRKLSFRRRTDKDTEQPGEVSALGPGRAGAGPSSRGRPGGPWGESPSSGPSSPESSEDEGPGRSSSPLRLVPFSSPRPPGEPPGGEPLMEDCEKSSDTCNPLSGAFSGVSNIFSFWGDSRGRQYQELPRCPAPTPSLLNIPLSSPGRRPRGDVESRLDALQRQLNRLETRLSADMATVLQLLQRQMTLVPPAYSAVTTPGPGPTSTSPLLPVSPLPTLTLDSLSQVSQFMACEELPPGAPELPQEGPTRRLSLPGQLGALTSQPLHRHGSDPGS
row,SMILES,"hERG current change (%, negative = inhibition) at 10uM [%]"
1,CCOC(=O)C1=C(C)NC(=O)NC1c1ccc(N(CC)CC)cc1 (centres unmarked),-6.39
2,c1ccc(CCc2nc(-c3cccnc3)no2)cc1,4.59
3,CCOC(=O)C1CCN(Cc2cc(=O)n3c(-c4ccccc4)csc3n2)CC1,-8.55
4,CC(=O)Nc1ccc(C(=O)CSc2nc3ccc(C)cc3[nH]2)cc1,-9.01
5,Cc1nc2scc(C)n2c(=O)c1S(=O)(=O)NCc1ccc(F)cc1,16.8
6,COC(=O)OCC12CCC(O1)C1(C)C(=O)OCC21 (centres unmarked),30.3
7,Cc1cccc(C(=O)Oc2csc(=S)n2C(=O)c2cccc(C)c2)c1,6.76
8,COc1ccc(C)cc1NS(=O)(=O)c1ccc(NS(=O)(=O)c2ccc(NC(C)=O)cc2)cc1,-3.81
9,Cc1ccc(Nc2nc3c([nH]2)c(=O)[nH]c(=O)n3C)cc1,7.95
10,COC(=O)c1ccc(CSCC(=O)Nc2ccccc2)cc1,33.3
11,Cc1ccc(OCCn2cncn2)c([N+](=O)[O-])c1,15.4
12,COc1c(C)cc(Br)cc1C(=O)NC(=S)Nc1ccc(Cl)c(C(=O)O)c1,40
13,O=C1CC(N2CCN(Cc3ccc4c(c3)OCO4)CC2)C(=O)N1CCc1ccccc1 (centres unmarked),-7.69
14,COc1ccccc1OCC(O)CN1CCN(CC(=O)Nc2c(C)cccc2C)CC1.Cl (centres unmarked),-1.29
15,Cn1c(SCC(=O)N2CCCC2)nc2ccccc21,39.9
16,O=c1cc(CO)oc(CN2CCN(c3cccc(C(F)(F)F)c3)CC2)c1O,0.339
17,COc1ccc(CNC(=O)COc2cccnc2[N+](=O)[O-])cc1,-1.75
18,COc1ccc(C(=O)OCc2c(C)noc2C)cc1,12.9
19,O=C(Nc1nnc(C(F)(F)F)s1)c1ccc(Br)s1,2.36

row,SMILES,"hERG current change (%, negative = inhibition) at 10uM [%]"
1,CC1CCCN(CCCNC(=O)c2nn(C)c3c2CS(=O)(=O)c2ccccc2-3)C1 (centres unmarked),-39.8
2,COC(=O)N/N=C/c1cccs1,11.1
3,Cl.O=C(O)c1ccc(-c2nc3ccccc3[nH]2)cc1,27.8
4,CCN(CC)S(=O)(=O)c1ccc(O)c(C(=O)OCC(=O)N2CCCC2)c1,11.4
5,O=Cc1cn(CC(=O)N2CCc3ccccc32)c2ccccc12,9.16
6,CC(C)N=c1scc(-c2cccs2)n1/N=C/c1ccc(O)c(O)c1O,6.49
7,COc1ccc(C2CC(c3ccccc3)Nc3nc(N)nn32)cc1 (centres unmarked),-25
8,CCC(c1nnnn1Cc1cccs1)N1CCN(c2nc3ccccc3s2)CC1 (centres unmarked),-56.1
9,COc1ccc(-c2cc(C(=O)N3CCN(Cc4ccccc4)CC3)no2)cc1OC,-10.4
10,Cc1ccc2c(c1)Oc1ccc(NC(=O)CCCl)cc1C(=O)N2,-1.32
11,CCCCNC(=O)c1ccc(S(=O)(=O)c2ccc(Cl)cc2)c(NC(C)=O)c1,-17.4
12,CC(=O)c1c(C)[nH]c2ccccc2c1=O,4.43
13,CC(C1CC2CCC1C2)n1c(COc2ccccc2F)nnc1SCC(N)=O (centres unmarked),-11.5
14,CN(CC(=O)Nc1ccccc1Cl)CC(=O)Nc1ccccc1[N+](=O)[O-],-28.6
15,COc1ccc(CN2CCN(Cc3c[nH]c4ccccc34)CC2CCO)c(F)c1 (centres unmarked),-41.4
16,CCCCOC(=O)Cn1c(=O)n(CC(=O)OCCCC)c2cc(C)ccc21,-69.4
17,COc1cc(C(=O)OCc2cc3ccccc3[nH]c2=O)cc(OC)c1OC,3.83
18,COC(=O)C(O)(c1ccc(NC(=O)c2cccs2)cc1)C(F)(F)F (centres unmarked),4.08
19,O=C(NCCn1c(C(F)(F)F)nc2cc(C(F)(F)F)ccc21)[C@H]1CCCN1c1nc(CN2CCCCC2)cs1,-17.1

row,SMILES,"hERG current change (%, negative = inhibition) at 10uM [%]"
1,CCOC(=O)C1(CC2CC2)CCN(C(=O)c2cc(OC)nc3ccccc23)CC1,-12.9
2,O=C(O)c1cc(-c2ccc(O)cc2)on1,19.1
3,COc1ccc(NC(=S)N2CCC(c3nc4ccc(Cl)cc4[nH]3)CC2)c(OC)c1,-42.6
4,CCOC(=O)c1sc(-c2cccc(C(F)(F)F)c2)nc1O,10.7
5,CCOc1ccc(CCNC(=O)C2=C(C)C(=O)OC23CCC(C)CC3)cc1 (centres unmarked),-11.6
6,CCOc1ccc(CCNC(=O)COC(=O)c2ccc(OC(C)C)cc2)cc1OCC,-6.24
7,C=CCc1c(OC)ccc2c1c(S(=O)(=O)c1ccc(C)cc1)cn2COC,-2.73
8,C/C=C(\C)C(=O)OC1c2c(ccc3ccc(=O)oc23)OC(C)(C)C1OC(C)=O (centres unmarked),-72.5
9,C=C(C)C(=O)N1CC2(CC(c3cccc(NC(=O)/C(C)=C\C)c3)=NO2)C[C@H]1C(N)=O (some centres unmarked),2.26
10,CCOc1ccc(C(O)C(CN2CCOCC2)c2ccccc2)cc1.Cl (centres unmarked),2.89
11,CC(C)(C)c1ccc(C(=O)N2CCC(=O)N(C(CO)Cc3ccccc3)CC2)cc1 (centres unmarked),-16.7
12,CC(CC(=O)Nc1ccc(S(=O)(=O)N2CCOCC2)cc1)c1ccccc1 (centres unmarked),-4.25
13,O=C(CN1CCOCC1)Nc1ccc(S(=O)(=O)NC2CCCCC2)cc1,-2.5
14,COCCCn1[nH]c2c3c(ccc2c1=O)C(=O)c1ccccc1C3=O,-3.05
15,Cc1oc(-c2ccccc2F)nc1CS(=O)CC(=O)NCCN1CCCCC1C (centres unmarked),-6.01
16,COc1c2c(cc3oc(C)cc(=O)c13)OC(C(C)(C)OC1OC(CO)C(O)C(O)C1O)C2 (centres unmarked),15.8
17,O=C(COC(=O)COc1ccc(Cl)cc1Cl)NC1CCCCCC1,15.7
18,COc1ccccc1N1CCN(C(=O)C(NS(=O)(=O)c2cccs2)c2ccccc2)CC1 (centres unmarked),-34.4
